Experimental data taken from patent publication US7494996B2 (priority 2000, dated 2009).
For some assays here: The name of at least one read-out is uncertain. For some assays here: At least one structure is not confirmed: it was looked up by name or label, or the drawing left a doubt.

Columns and labels:
Aedes aegypti = assay: Protocol 2 yellowfever mosquito (YFM) larva well screen; type: in vivo; conditions: 3 ppm, mortality 3 days after infesting
Caenorhabditis elegans = assay: Protocol 2 nematode (CE) well screen; type: in vivo; conditions: 15 or 20 ppm, mortality 6 days after infesting
Two-Spotted Spider Mite = assay: Protocol 1 Two-Spotted Spider Mite (MTA) foliar spray test; type: in vivo, Tetranychus urticae; conditions: percentage of mites killed 1-day post-treatment
Procedure: A test solution containing 1250 parts per million (ppm) was prepared by dissolving the test compound in […] of a second solvent (acetone: water, 1:1) to give an acetone:water: methanol system of 50: 40:10.
The enclosed spraying chamber consisted of a single spray nozzle mounted on a boom moving at a fixed speed and distance over stationary targets. The vertical distance from the nozzle tip to the targets was adjusted to give rates varying from 150 g/ha to 600 g/ha
A pad of moistened cotton was placed in a Petri dish. A 1-inch square section cut from a fully expanded primary lima bean (Phaseolus limensis) leaf was positioned bottom side up on the moist cotton. The leaf square was infested with approximately 50 adult female mites. The dishes were sprayed with the test solutions and held at 27° C. for mortality determination 1-day post-treatment. The percentage of mites killed were rated from 100% (all dead) to 0% (all alive).

SMILES | YFM Insect Active (Aedes aegypti) | CE Insect Active (Caenorhabditis elegans) | MTA (Two-Spotted Spider Mite; Protocol 1, DOSE 300) [%] | MTA (Two-Spotted Spider Mite; Protocol 1, DOSE 150) [%]
CCCCn1nc(C)nc(-c2ccc(C)cc2)c1=O [compound 284] | Y | Y |  | 
CCC(C)n1nc(C2CCCCC2)ncc1=O (centres unmarked) [Compound 255] | N | N |  | 
O=c1cnc(-c2ccccc2)nn1CC(F)(F)F [Compound 7, 1-(2,2,2-trifluoroethyl)-3-phenyl-1,2,4-triazin-6-one] |  |  | 100 | 
CCCSC1NC(c2ccc(Cl)cc2)=NN(CC(F)(F)F)C1=O (centres unmarked) [Compound 19, 1-(2,2,2-trifluoroethyl)-3-(4-chlorophenyl)-5-propylthio-4,5-dihydro-1,2,4-triazin-6-one] |  |  |  | 90
CCC#CCn1nc(-c2ccc(Cl)cc2)ncc1=O [Compound 8, 1-(2-pentynyl)-3-(4-chlorophenyl)-1,2,4-triazin-6-one] |  |  | 100 | 
CCCCn1nc(-c2ccc(Cl)cc2)ncc1=O [Compound 258] | N | Y |  | 
N#CCn1nc(-c2ccc(Cl)cc2)ncc1=O [Compound 264] | N | Y |  | 
CCCCCCn1nc(-c2ccc(Cl)cc2)ncc1=O [Compound 262] | Y | Y |  | 
CCCCCCCCCCn1nc(-c2ccc(Cl)cc2)ncc1=O [Compound 260] | N | Y |  | 
COC1NC(c2cc(Cl)cc(Cl)c2)=NN(CC(F)(F)F)C1=O (centres unmarked) [Compound 18, 1-(2,2,2-Trifluoroethyl)-3-(3,5-dichlorophenyl)-5-methoxy-4,5-dihydro-1,2,4-triazin-6-one] |  |  |  | 100
CCCCn1nc(C)nc(-c2ccc(OC)cc2)c1=O [compound 286] | Y | N |  | 
CCCCn1nc(-c2ccc(Cl)c(Cl)c2)ncc1=O [Compound 270] | N | Y |  | 
CC(C)(C)N1N=C(c2ccc(Cl)cc2)NCC1=O [Compound 6, 1-t-Butyl-3-(4-chlorophenyl)-4,5-dihydro-1,2,4-triazin-6-one] |  |  | 0 | 
Cc1cccc(-n2nc(-c3cccc(Cl)c3)ncc2=O)c1 [Compound 278] | N | Y |  | 
O=c1cnc(-c2ccc(Cl)cc2)nn1C1CCCCC1 [Compound 256] | N | N |  | 
CCCCn1nc(-c2cc(Cl)cc(Cl)c2)ncc1=O [Compound 271] | Y | Y |  | 
CCCCn1nc(C)nc(-c2cccc(C)c2)c1=O [compound 285] | Y | N |  | 
O=C1CNC(c2ccc(Cl)cc2)=NN1CC(F)(F)F [Compound 4, 1-(2,2,2-trifluoroethyl)-3-(4-chlorophenyl)-4,5-dihydro-1,2,4-triazin-6-one] |  |  | 0 | 
CCCCn1nc(-c2cc(C(F)(F)F)cc(C(F)(F)F)c2)ncc1=O [Compound 288] | Y | N |  | 
CCCCN1N=C(c2cc(Cl)cc(Cl)c2)N(C(=O)OCI)CC1=O [Compound 16, 1-(n-butyl)-3-(3,5-dichlorophenyl)-4-(iodomethyloxycarbonyl)-4,5-dihydro-1,2,4-triazin-6-one] |  |  |  | 69
CCCCn1nc(-c2cccc(Cl)c2)ncc1=O [Compound 277] | Y | Y |  | 
CCCC(C)n1nc(-c2ccc(Cl)cc2)ncc1=O (centres unmarked) [Compound 254] | N | Y |  | 
O=c1cnc(-c2ccc(Cl)cc2)nn1Cc1ccc(Cl)s1 [Compound 266] | Y | Y |  | 
C[Si](C)(C)Cn1nc(-c2ccc(Cl)cc2)ncc1=O [Compound 265] | Y | Y |  | 
CCCCCCCCn1nc(-c2ccc(Cl)cc2)ncc1=O [Compound 259] | N | Y |  | 
O=C1CNC(c2ccc(Cl)cc2)=NN1 [Compound 5, 3-(4-Chlorophenyl)-4,5-dihydro-1,2,4-triazin-6-one] |  |  | 0 | 
